One test deals with HSkMC. The test can be described thus: cytotoxicity call (relative viability < 0.9). Particulars: 10 µM.
The next test deals with HepG2. Description: cytotoxicity call (relative viability < 0.9). Particulars: 10 µM.
The subject of a further test is S. aureus RN4220. The test can be described thus: growth inhibition call (relative growth <= 0.2). Particulars: 50 µM.

The list shows a part of the results.

On to `C[C@H]1CN([C@@H](C)CO)C(=O)Cc2cc(NC(=O)Cn3cnnn3)ccc2O[C@@H]1CN(C)Cc1ccc(C(F)(F)F)cc1`, for which the cytotoxicity call with HSkMC and in the test on HepG2 was “inactive” throughout. The growth inhibition call in the test on S. aureus RN4220 was “inactive”.
As to `COc1ccc2cc(S(=O)(=O)N[C@H](CC(=O)N[C@H](Cc3ccc(CN4[C@H](C)CCC[C@@H]4C)cc3)C(=O)N(C)C(C)C)c3ccc4c(c3)OCO4)ccc2c1`, the cytotoxicity call in the test on HSkMC and in the test with HepG2 was “inactive” each time. Further, the growth inhibition call in the test with S. aureus RN4220 was “inactive”.
In the case of `C[C@H]1CCCCO[C@H](CN(C)C(=O)Nc2ccc(C(F)(F)F)cc2)[C@@H](C)CN([C@@H](C)CO)C(=O)c2cc(NS(=O)(=O)c3ccccc3)ccc2O1`, the cytotoxicity call in the test on HSkMC and in the test with HepG2 was “active” throughout. The growth inhibition call in the test with S. aureus RN4220 is “inactive”.
As for `CN(C)CN1C(=O)c2ccccc2C1=O`, the cytotoxicity call in the test on HSkMC and in the test with HepG2 was “inactive” each time. In addition, the growth inhibition call with S. aureus RN4220 was “inactive”.
As to `C[C@H](CO)N1C[C@H](C)[C@H](CN(C)S(C)(=O)=O)Oc2c(NC(=O)c3ccc(-c4nccs4)cc3)cccc2C1=O`, the cytotoxicity call with HSkMC and in the test on HepG2 was “inactive” throughout. In the test with S. aureus RN4220, the growth inhibition call is “inactive”.
For `C[C@@H]1CCCCO[C@@H](CN(C)C(=O)Nc2ccc(C(F)(F)F)cc2)[C@@H](C)CN([C@@H](C)CO)C(=O)c2cc(N(C)C)ccc2O1`, the cytotoxicity call with HSkMC and with HepG2 was “inactive” each time. For the same compound, the growth inhibition call in the test on S. aureus RN4220 is “inactive”.
As to `Nc1ccc2c(c1)nc(CO)n2CCO`, the cytotoxicity call with HSkMC and with HepG2 was “inactive” each time. Besides, the growth inhibition call in the test with S. aureus RN4220 was “inactive”.
As for `COc1ccc(S(=O)(=O)N(C)C[C@H]2Oc3ccc(NC(=O)Cc4ccccc4)cc3CC(=O)N([C@H](C)CO)C[C@H]2C)cc1`, the cytotoxicity call with HSkMC and in the test with HepG2 was “inactive” throughout. For the same compound, the growth inhibition call with S. aureus RN4220 is “inactive”.
In the case of `C[C@H]1CCCCO[C@H](CN(C)S(=O)(=O)c2cn(C)cn2)[C@@H](C)CN([C@@H](C)CO)C(=O)c2cc(NS(=O)(=O)c3cn(C)cn3)ccc2O1`, the cytotoxicity call with HSkMC and with HepG2 was “inactive” throughout. In addition, the growth inhibition call in the test with S. aureus RN4220 is “inactive”.
For the compound `O=C(C[C@H]1CC[C@H]2[C@@H](COC[C@@H](O)CN2C(=O)c2cnccn2)O1)NCc1ccc(Oc2ccccc2)cc1`, the cytotoxicity call in the test on HSkMC and in the test with HepG2 was “inactive” throughout. In addition, the growth inhibition call with S. aureus RN4220 was “inactive”.
Regarding `C[C@@H]1CCCCO[C@H](CN(C)Cc2ccccc2)[C@H](C)CN([C@@H](C)CO)C(=O)c2cc(NC(=O)Nc3ccc(C(F)(F)F)cc3)ccc2O1`, the cytotoxicity call in the test on HSkMC and with HepG2 was “active” in each case. The growth inhibition call in the test on S. aureus RN4220 is “inactive”.
`O=C(O)[C@H]1O[C@@H](Oc2c(-c3ccc(O)cc3)oc3cc(O)cc(O)c3c2=O)[C@H](O)[C@@H](O)[C@@H]1O`: the cytotoxicity call in the test with HSkMC and in the test on HepG2 was “inactive” throughout. Besides, in the test on S. aureus RN4220, the growth inhibition call is “inactive”.
For the compound `Cc1ccc(S(=O)(=O)N(C)C[C@@H]2OCCCC[C@@H](C)Oc3ccc(NC(=O)Nc4cccc5ccccc45)cc3C(=O)N([C@H](C)CO)C[C@H]2C)cc1`, the cytotoxicity call with HSkMC and in the test on HepG2 was “inactive” throughout. Moreover, in the test with S. aureus RN4220, the growth inhibition call was “inactive”.
On to `C[C@@H]1CCCCO[C@@H](CN(C)Cc2ccc(C(F)(F)F)cc2)[C@H](C)CN([C@@H](C)CO)C(=O)c2cc(NS(=O)(=O)c3ccc(F)cc3)ccc2O1`, for which the cytotoxicity call with HSkMC and in the test on HepG2 was “inactive” in each case. The growth inhibition call in the test with S. aureus RN4220 is “inactive”.
On to `COc1ccc(C#Cc2ccc3c(c2)O[C@H](CN(C)S(=O)(=O)c2ccccc2F)[C@H](C)CN([C@H](C)CO)S3(=O)=O)cc1`, for which the cytotoxicity call with HSkMC and in the test with HepG2 was “inactive” in each case. Further, in the test with S. aureus RN4220, the growth inhibition call was “inactive”.
Consider `COc1ccc(CN(C)C[C@@H]2OCCCC[C@@H](C)Oc3ccc(NC(=O)Nc4ccc5c(c4)OCO5)cc3C(=O)N([C@@H](C)CO)C[C@@H]2C)cc1`, for which the cytotoxicity call in the test on HSkMC was “inactive”. The cytotoxicity call in the test with HepG2 was “active”. Besides, the growth inhibition call in the test on S. aureus RN4220 is “inactive”.
Regarding `C[C@@H]1CN([C@H](C)CO)C(=O)c2cccc(NS(=O)(=O)c3cn(C)cn3)c2O[C@@H]1CN(C)S(=O)(=O)c1ccc(F)cc1`, the cytotoxicity call in the test with HSkMC and in the test on HepG2 was “inactive” in each case. In the test with S. aureus RN4220, the growth inhibition call is “inactive”.
Consider `CCS(=O)(=O)Nc1ccc2c(c1)C(=O)N(C)C[C@H](OC)[C@H](C)CN(Cc1nccs1)[C@H](C)CO2`, for which the cytotoxicity call in the test with HSkMC and with HepG2 was “inactive” each time. In addition, the growth inhibition call with S. aureus RN4220 is “inactive”.
With `Cc1ccc(S(=O)(=O)Nc2ccc3c(c2)C(=O)N([C@@H](C)CO)C[C@H](C)[C@H](CN(C)Cc2ccc(C(=O)O)cc2)OCCCC[C@@H](C)O3)cc1`, the cytotoxicity call in the test with HSkMC and in the test with HepG2 was “inactive” throughout. Also, the growth inhibition call in the test on S. aureus RN4220 was “inactive”.
In the case of `COc1ccc(S(=O)(=O)Nc2ccc3c(c2)CC(=O)N([C@H](C)CO)C[C@@H](C)[C@@H](CN(C)S(=O)(=O)c2ccccc2)O3)cc1`, the cytotoxicity call in the test on HSkMC and in the test on HepG2 was “inactive” in each case. In addition, the growth inhibition call with S. aureus RN4220 was “inactive”.
Consider `Cc1ccc(S(=O)(=O)Nc2cccc3c2O[C@H](CN(C)S(=O)(=O)c2ccccc2)[C@@H](C)CN([C@@H](C)CO)C3=O)cc1`, for which the cytotoxicity call with HSkMC and in the test on HepG2 was “inactive” throughout. Also, the growth inhibition call in the test on S. aureus RN4220 is “inactive”.
In the case of `C[C@@H]1CN([C@H](C)CO)C(=O)c2cc(NC(=O)Nc3ccc(C(F)(F)F)cc3)ccc2O[C@H]1CN(C)Cc1ccc(Cl)c(Cl)c1`, the cytotoxicity call with HSkMC and in the test with HepG2 was “active” in each case. Moreover, the growth inhibition call with S. aureus RN4220 is “inactive”.
Turning to `C[C@H](CO)N1C[C@H](C)[C@@H](CN(C)C(=O)C2CCCCC2)Oc2cc(C#CC3CC3)ccc2S1(=O)=O`, the cytotoxicity call in the test on HSkMC and with HepG2 was “inactive” each time. The growth inhibition call with S. aureus RN4220 was “inactive”.
In the case of `C[C@@H]1CN([C@H](C)CO)C(=O)c2cc(NC(=O)c3ccccc3)ccc2O[C@@H](C)CCCCO[C@@H]1CN(C)C(=O)Cc1ccccc1`, the cytotoxicity call in the test with HSkMC and in the test on HepG2 was “inactive” throughout. Moreover, the growth inhibition call in the test on S. aureus RN4220 was “inactive”.
As to `CCOC(=O)C1=C(C)NC(=O)N[C@@H]1C`, the cytotoxicity call in the test on HSkMC (human skeletal muscle cells) and with HepG2 was “inactive” throughout. Further, in the test with S. aureus RN4220, the growth inhibition call was “inactive”.
Turning to `CC[N+](C)(CC)CCOC(=O)C(O)(c1ccccc1)C1CCCCC1.[Br-]` (stereo unspecified), the cytotoxicity call in the test with HSkMC and in the test with HepG2 was “inactive” each time. For the same compound, the growth inhibition call in the test on S. aureus RN4220 is “inactive”.
Take `C[C@H]1CN([C@@H](C)CO)S(=O)(=O)c2ccc(Br)cc2O[C@@H]1CN(C)CC1CCOCC1`: the cytotoxicity call with HSkMC and with HepG2 was “inactive” each time. The growth inhibition call with S. aureus RN4220 is “inactive”.
